Test results: PMC12136788
Positions count from the first letter of the chain named. The list shows a part of the results.

T1: UNK ZnF1-3 (human, UniProt Q9C0B0 31-174)
T1 sequence: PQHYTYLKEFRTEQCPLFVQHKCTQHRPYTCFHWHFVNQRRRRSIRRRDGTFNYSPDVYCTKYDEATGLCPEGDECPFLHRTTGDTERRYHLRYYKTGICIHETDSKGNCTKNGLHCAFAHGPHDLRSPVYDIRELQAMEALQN

B1: chr11:21231013:21231014:-_ENSMUSG00000001891_ENSMUST00000060895|mus_hu|FALSE|FALSE (ssRNA)
RNA: GGGAGUUCUACAGUCCGACGAUCAAAAAUAUACUCUUUGCCUUCUCCUAUAAAGGUAUCAAGCAAUCCAGAGUUGUAGAAACUGGCGUAAAUAUCACCAUGACCUGGAGGGUACCAAGCUUCUGUAUUUUCCCCUGAGUAAGACAACAGAGGAUUGAGCAUCA
B2: chr19:8913615:8913616:-_ENSMUSG00000071658_ENSMUST00000096259|mus_hu|mus_mus_mus_hu_False|48_48 (ssRNA)
RNA: GGGAGUUCUACAGUCCGACGAUCAGGGUACCAAAACCUUCUGCCUGAAAUGGGUGCCCCACCCAGUAGGGAGUUGCAGCUGAAAGUAUCCGUAGCAGAAGCAGUGACUAUACGAAAGGAGGCCCCUGGGGAGGGCCAGGCCAGCAACAGAGGAUUGAGCAUCA
B3: chrX:98862621:98862622:+_ENSMUSG00000034160_ENSMUST00000044475|mus_hu|mus_mus_mus_hu_False|38_78 (ssRNA)
RNA: GGGAGUUCUACAGUCCGACGAUCCUGCAUCUCCUUUAGAGUGUUUCCCAUAUUAGAAUAAGCAUCAGCAAAGGUAGGACUGAUUCGAAUAGCCUCCUUAUAGUGCAUCAGAGCUUCCUGCAGUUUUCCCUGCUGCUGCAGUACCAACAGAGGAUUGAGCAUCA
B4: chr3:150285740:150285741:+_ENSG00000144895_ENST00000460851|hu_hu|motif|central (ssRNA)
RNA: GGGAGUUCUACAGUCCGACGAUCAGCUUUUUUAUUCCACAGCAUUGUAACUUUAUCUGCCUUAAAGAAACUUUUAUUAGCGGAAGCUGCAUGAGGUCCAGCAAAGUUGGGGUACUGAUAUAAUCUAACAAAUGAAGGUGCACCCAACAGAGGAUUGAGCAUCA
B5: chr2:198351390:198351391:-_ENSG00000144381_ENST00000345042|hu_hu|hu_hu_hu_mus_False|18_58 (ssRNA)
RNA: GGGAGUUCUACAGUCCGACGAUCUCAUUCCCACCCUCCACAGAAAGGCUGCUUCUGAACUCUCAUGUGGUGACACAGCACUAAAAUCCUGAUGCUCACAGAACAGUAGAGAUGCCUCCUCAGUGAUAGUUGAAAGCAGGACACCAACAGAGGAUUGAGCAUCA
B6: chr2:26245550:26245551:+_ENSMUSG00000026926_ENSMUST00000076431|mus_hu|FALSE|FALSE (ssRNA)
RNA: GGGAGUUCUACAGUCCGACGAUCAUUAUCCAAUGUGGUUACUUUGGUUUCAAACUUUUCCUGUCCAUCAACUGUAGCAAAAACAGGCUUGGGUACUCCAGGUAAGGGAGAAGAGAGGGGGAUGUUGGGAUAGGCACCACCACUCAACAGAGGAUUGAGCAUCA
B7: chr1:225611761:225611762:-_ENSG00000143815_ENST00000272163|hu_mus|hu_hu_hu_mus_True|38_78 (ssRNA)
RNA: GGGAGUUCUACAGUCCGACGAUCCCAGGCCAUCGGCCUCUGACCACUUCACCCUCAGCAAAUUUCCUACUUGGCAUUUUCUAAAAUUAGUCUGGCCCAGGUUCCGGGGGAACUCCAGCCACUCCAGGACAGUCACCAGCAGCCCAACAGAGGAUUGAGCAUCA
B8: 74640089_74641450_513_3pUTR_ENSG00000113161_ENST00000287936|human|control|control (ssRNA)
RNA: GGGAGUUCUACAGUCCGACGAUCUGUGCUUGCUCUGGAAAGGUCAAUCAAAAGUAGGAAAAAGGGCAAAGCUUCAUUCAAGCCUGUCAAUUCUUUGUCUAAGAAGUGAAUGACAACUGUACUGAAUACAAAACUUGAGAAAAUCAACAGAGGAUUGAGCAUCA
B9: chr5:100395146:100395147:-_ENSMUSG00000000568_ENSMUST00000112939|mus_mus|FALSE|FALSE (ssRNA)
RNA: GGGAGUUCUACAGUCCGACGAUCAGAAAGGCCACCAACAAAAAUUUUUUUGACAGGCUCUUUUGUUUUCAUGGCUUUGGCCCUUUUAGGAUCAAUGACUUUCCCAUUCAAUUUAUGUUCUUUCUGAUCCAUGACCUUAUCUACCAACAGAGGAUUGAGCAUCA
B10: chrX:72692514:72692515:+_ENSMUSG00000031201_ENSMUST00000033544|mus_hu|FALSE|FALSE (ssRNA)
RNA: GGGAGUUCUACAGUCCGACGAUCUACUGCUGAUUCAAGGCACACUUUCCCGAUAGUGACAUGAGGUACAAUAUGGAUUGGGAUUUCGAUUCUCUCAUACCUUUCCUCUUCCUUCUGGCCCUCAAUGGAGAUGUGCUGGCUGGACAACAGAGGAUUGAGCAUCA
B11: chr6:136599331:136599332:-_ENSG00000029363_ENST00000527536|hu_hu|FALSE|FALSE (ssRNA)
RNA: GGGAGUUCUACAGUCCGACGAUCGGGAGCAUCAGAGCAAGAUGAACUCUGACUAGGUGGUGUAGCAAUAGGUGAAGGACUAUGGGGUGAUCUAGGACUAUUAUCAUAAGCUGAAAGGCCAGGCCAAAUAUCACCGGAUGUGGCCAACAGAGGAUUGAGCAUCA
B12: chr12:100720429:100720430:+_ENSG00000136021_ENST00000360820|hu_hu|motif|central (ssRNA)
RNA: GGGAGUUCUACAGUCCGACGAUCGAAGGGUAGGAUAUCAUCAAGUACAAACCACUUAUCCAAGUAUUCCAAAAUCUUUCCGGAGCACACUAAUGAAUUUACACGAACCGCAAGGGAAGAUGUUUGUAGACAAGCAUUUUUAAUCAACAGAGGAUUGAGCAUCA
B13: chrX:98862621:98862622:+_ENSMUSG00000034160_ENSMUST00000044475|mus_hu|mus_mus_mus_hu_False|78_88 (ssRNA)
RNA: B3 RNA with A54G, G102A
B14: 64422500_64422620_5102_CDS_ENSG00000118482_ENST00000393387|human|control|control (ssRNA)
RNA: GGGAGUUCUACAGUCCGACGAUCCUGCUGAACACACGAGUUUUUCUCUGCAGAACACAACUUUUCCUCUACAUUGAUUUGUUCUGUUAAGUGCUCCUUGUUGUGUGACAGGCCAGGCAGCAUGUGUUUUUCUCCAUUCCGGCACAACAGAGGAUUGAGCAUCA
B15: chr5:40767622:40767623:-_ENSG00000132356_ENST00000397128|hu_mus|FALSE|FALSE (ssRNA)
RNA: GGGAGUUCUACAGUCCGACGAUCAUCUUUUAUUGCGGCCCUCUUCAUGGGAUCCACCUGCAGCAUAUGUUUCAAAAGGCUGAUUACUGAAGGGUUUAAGUACUGAGGGGUAUAAAAGAUCCCAUCACAUAUCUUCUUAAAAAGCAACAGAGGAUUGAGCAUCA
B16: chr18:35732242:35732243:+_ENSMUSG00000037236_ENSMUST00000166793|perfect_dup|motif|central (ssRNA)
RNA: GGGAGUUCUACAGUCCGACGAUCACGACUUCCAUGGUCAUAAUCAAGCACUGGGUUGAGACUAGGACCACGAUCAUCAAAACGGUCUCUUCUAAAGUGCCUUUUUUCUUCCCAAUCAUCCCUAGGUACUCUGUAUGGUGGCUCCAACAGAGGAUUGAGCAUCA
B17: chr14:76904430:76904431:+_ENSMUSG00000022010_ENSMUST00000022587|mus_mus|mus_mus_mus_hu_True|58_68 (ssRNA)
RNA: GGGAGUUCUACAGUCCGACGAUCUGCAGCCAAAAACACCCUCGUGGAAAAAAAGAGGGAACACCAGCAGCCUGGUUCAAACUAGAUAAAAUCUUCUGGCUUUCCGCAGCCCAGGGAGAAACAGAAAACGGCAGCCCUAAUUUACAACAGAGGAUUGAGCAUCA
B18: chr6:145182920:145182921:-_ENSMUSG00000030265_ENSMUST00000032399|mus_hu|FALSE|FALSE (ssRNA)
RNA: GGGAGUUCUACAGUCCGACGAUCCUCCUCUUGACCUGCUGUGUCGAGAAUAUCCAAGAGACAGGUUUCUCCAUCAAUUACUACUUGCUUCCUGUAGGAAUCCUCUAUUGUUGGAUCAUAUUCGUCCACAAAAUGAUUCUGAAUCAACAGAGGAUUGAGCAUCA
B19: chr2:26332712:26332713:+_ENSG00000084733_ENST00000264710|hu_hu|FALSE|FALSE (ssRNA)
RNA: GGGAGUUCUACAGUCCGACGAUCGUUUCUAAGCCAUUUGCUGAUGUUUUCAAAACUUUUACCAUUGGUGAUGUCAUAUACUAGCAUGAUACCCAUUGCGCCUCUGUAGUAGGAGGUUGUGAUGGUGUGAAAUCGCUCCUGGCCCAACAGAGGAUUGAGCAUCA
B20: chrX:71549762:71549763:+_ENSMUSG00000019087_ENSMUST00000019231|mus_mus|mus_mus_mus_hu_False|38_78 (ssRNA)
RNA: GGGAGUUCUACAGUCCGACGAUCAAACCCGUGUACUUCUUAUUGUUAGCACAACAUUCCCCCCCAACGAUAACGACAGCCAAGCAGGACAGACAGUCAAGUAGUCUUUCCACACUCCCAAACUCAGGGAGCCCUAUAACCUUACAACAGAGGAUUGAGCAUCA
B21: chr12:25741899:25741900:+_ENSMUSG00000036333_ENSMUST00000066652|mus_mus|motif|central (ssRNA)
RNA: GGGAGUUCUACAGUCCGACGAUCCAAGUCUGUCUGGAAGAGACUAGGCCGUUCUGAAGACUUCUUGCCUGGGAGCAGCUUACGGCCUGACUGGUCGGAUUUCUCAUCUUCCUCAGUAAUGGGGUCCAGGGGUGAGGCCUCAUUCAACAGAGGAUUGAGCAUCA
B22: chr13:100193275:100193276:-_ENSMUSG00000052727_ENSMUST00000064762|mus_mus|FALSE|FALSE (ssRNA)
RNA: GGGAGUUCUACAGUCCGACGAUCAGGCUAGAAAUUGUUUCUCUUCACGUGUGGACCAGCCUAACAGCUCCCAUUAAAUUACUAUCUUGUGUGUAUUGAGCUUGUCUGAUGAAGUGAGAAGCAAGUGGGCUUACAGGCAACGAACAACAGAGGAUUGAGCAUCA

Each binder was assayed against T1, UNK ZnF1-3 (assay: nsRBNS (natural sequence RNA bind-n-seq); RBNS binding buffer (assumed for nsRBNS): 25 mM Tris pH 7.5, 150 mM KCl, 3 mM MgCl2, 0.01% Triton X-100, 500 ug/ml BSA, 20 U/ml SUPERase-In, 4 C; UNK is unkempt and MSI1 is Musashi-1; names of the RNAs are library labels; protein concentration not given here; high values mean tight binding).
With B1 the binding signal was 1.06 enrichment R. Work on B2 yielded a binding signal of 1.45 enrichment R. B3 gave a binding signal of 1.15 enrichment R. B4 gave a binding signal of 1.91 enrichment R. With B5 the binding signal was 1.1 enrichment R. In the case of B6, the binding signal is reported as 1.73 enrichment R. B7 was tested, and the binding signal was 1.31 enrichment R. Binder B8 has a binding signal of 1.36 enrichment R. With B9 the binding signal was 0.844 enrichment R. B10 gave a binding signal of 0.846 enrichment R. B11 showed a binding signal of 1.95 enrichment R. B12 showed a binding signal of 1.24 enrichment R. B13 showed a binding signal of 1.21 enrichment R. Binder B14 has a binding signal of 0.434 enrichment R. B15 was tested, and the binding signal was 1.16 enrichment R. Binder B16 has a binding signal of 1.05 enrichment R. B17 gave a binding signal of 2.75 enrichment R. For B18, the binding signal was 0.592 enrichment R. B19 showed a binding signal of 0.595 enrichment R. B20 showed a binding signal of 1.41 enrichment R. B21 was tested, and the binding signal was 0.478 enrichment R. Work on B22 yielded a binding signal of 0.908 enrichment R.
